# In PubChem BioAssay AID686978 (National Center for Advancing Translational Sciences (NCATS), 2013):
# Values joined by “and” are separate entries in the source; they are usually repeats but may differ in a detail not shown here. Equal entries are not always repeated. Hit rate of the full screen: of about 420,000 compounds, about 64,000 (15%) were called active. Inconclusive results, whose numbers are uncertain, are shown with a selection of clear calls. Calls follow the shape of the dose curve; as a rule, active = well fitted inhibition curve with a large enough effect; inconclusive = small, poorly fitted or top-dose-only effect; inactive = flat fitted curve, though single readings scatter. Where the call is inconclusive, the potency comes from a doubtful curve fit.
# Test: qHTS for Inhibitors of human tyrosyl-DNA phosphodiesterase 1 (TDP1): qHTS in cells in absence of CPT; also: nearly all actives have a fitted effect of over 55% in size
# Conditions: DT40 Tdp1-/- hTDP1 cells, no CPT, ATP luminescence, 48 h; activity change, negative = growth inhibition: at 46.2 µM (top of the series)
# Summary of the method: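 Growth of hTDP1-complemented DT40 Tdp1-knockout cells is measured by ATP luminescence after at least 48 hr compound exposure at 37 °C, with DMSO substituting for the 20 nM CPT used in the parallel screen.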
# % is scaled to controls: 0 for no effect and ±100 for the full control effect; potency is read from the fitted curve at half-maximal effect; tags tell the direction and shape of the fitted curve.
Structure (SMILES),Potency,"activity change, negative = growth inhibition"
NS(=O)(=O)c1cc2c(cc1Cl)NC(c1ccccc1OCC(=O)O)NS2(=O)=O (stereo not drawn),"inconclusive: 0.411 µM [inhibitor, partial curve, poor fit]",–
Cc1ncc(S(=O)(=O)c2ccccc2)c(-c2ccccc2Cl)n1,inactive,–
CCOc1ccc(-n2nc3c(Cl)nnc(C)c3c2C)cc1,"inconclusive: 29.1 µM [inhibitor, single point]",–
COc1ccc(N=CC2=C(O)CC(C)(C)CC2=O)cc1,–,inconclusive: -30.2% [inhibitor]
Cc1ccc(NC(=O)CN(C)C(=O)c2sc3cc(Cl)ccc3c2Cl)cc1,inactive,–
CC1CCCCC1NC(=O)CCn1c(=S)[nH]c2ccccc2c1=O (stereo not drawn),"inconclusive: 4.11 µM [inhibitor, full curve]",–
CC(=O)Oc1ccc([C@@H]2COc3c(ccc4c3C=CC(C)(C)O4)C2)c(OC(C)=O)c1,"inconclusive: 23.1 µM [inhibitor, single point]",–
COc1cc(OC)c(NC2(c3ccccc3)C(=O)c3ccccc3C2=O)cc1Cl,inactive,–
COc1ccc(S(=O)(=O)N2CCCC2CNC(=O)C(=O)NCc2cccs2)cc1 (stereo not drawn),"inconclusive: 14.6 µM [inhibitor, single point]",–
COc1cccc(C(c2nnnn2CC2CCCO2)N2CCN(C(=O)c3ccco3)CC2)c1OC (stereo not drawn),–,inconclusive: -38.3% [inhibitor]
Cc1ccc(-c2nn(-c3ccccc3)cc2C(=O)NCCCN2CCCC2=O)cc1,"inconclusive: 29.1 µM [inhibitor, single point]",–
CCOc1ccc(C(=O)NC(=S)N(Cc2ccccc2)Cc2ccccc2)cc1,"inconclusive: 29.1 µM [inhibitor, single point]",–
CC(=O)Nc1ccc(NC(=O)c2nc(S(=O)(=O)Cc3cccc(C)c3)ncc2Cl)cc1,active: 0.0461 µM,–
O=S(=O)(Nc1ccc2nc(-c3ccco3)[nH]c2c1)c1ccccc1,"inconclusive: 29.1 µM [inhibitor, single point]",–
CCn1c2ccccc2c2cc(CN3CCN(Cc4ccccc4Cl)CC3)ccc21,"inconclusive: 29.1 µM [inhibitor, single point]",–
COc1ccc(CONc2ncnc3nonc23)cc1[N+](=O)[O-],inactive,–
COc1ccc(N2CCN(C(=S)Nc3ccc(OC)cc3OC)CC2)cc1,"inconclusive: 16.4 µM [inhibitor, single point]",–
S=c1[nH]ncn1/N=C/c1ccc(N2CCOCC2)cc1,inactive,–
COc1cccc(NC(=O)CSc2nc3cc(OC)c(OC)cc3c3nc(-c4ccccc4)nn23)c1,inactive,–
COc1cc(/C=c2\[nH]c(=O)/c(=C/c3cc(OC)c(OC)c(OC)c3)[nH]c2=O)cc(OC)c1OC,–,inconclusive: -26.4% [inhibitor]
Cc1ccc2c(CN3CCN(CCO)CC3)cc(=O)oc2c1C,inactive,–
Cc1ccc(Nc2nc3c(S(=O)(=O)c4ccccc4)nnn3c3ccsc23)c(C)c1,"inconclusive: 2.91 µM [inhibitor, partial curve]",–

Structure (SMILES),Potency,"activity change, negative = growth inhibition"
CCc1cccc(CC)c1NC(=O)COC(=O)CC1c2ccccc2CCN1S(=O)(=O)c1ccc(F)cc1 (stereo not drawn),active: 23.1 µM,–
Cc1cccc2sc(N(CCCN(C)C)C(=O)c3ccc(Cl)s3)nc12,"inconclusive: 25.9 µM [inhibitor, single point] and inconclusive: 18.4 µM [inhibitor, single point]",–
COc1ccc(C2Nc3ccccc3C(=O)N2c2ccc(F)cc2)cc1COc1ccc(NC(C)=O)cc1 (stereo not drawn),active: 25.1 µM,–
O=C(CSc1nnc(SCc2ccc(Cl)cc2)s1)N/N=C/c1c(Cl)cccc1Cl,active: 25.9 µM,–
CC(C)OC(=O)c1ccc(COc2ccc3ccc(=O)oc3c2)o1,"inconclusive: 29.1 µM [inhibitor, single point]",–
CN(C)Cc1c(O)ccc2ccccc12,"inconclusive: 29.1 µM [inhibitor, single point]",–
Cc1sc2ncn(CC(=O)N3CCN(c4ccc(F)cc4)CC3)c(=O)c2c1S(=O)(=O)N1CCCCC1,active: 16.4 µM,–
Cc1ccc(S(=O)(=O)c2cn(CC(=O)Nc3ccc4c(c3)OCO4)c3ccccc3c2=O)cc1,–,inconclusive: -36.1% [inhibitor]
COc1ccccc1NC(=S)N=Nc1c(O)[nH]c2ccc(Br)cc12,active: 1.46 µM,–
COc1ccc(C(=O)CSc2nc3nn(-c4ccccc4)c(=O)c-3c3n2CCCCC3)c(OC)c1,"inconclusive: 13 µM [inhibitor, single point]",–
Cc1ccc(S(=O)(=O)N[C@H](C(=O)OCC(=O)NC(=O)NCc2ccco2)C(C)C)cc1,"inconclusive: 23.1 µM [inhibitor, partial curve, poor fit]",–
COc1ccc(-c2noc(N3CCC(C(=O)Nc4cc(OC)c(OC)c(OC)c4)CC3)n2)cc1,inactive,–
CCCCN(C)C/C(O)=C(\C#N)c1nc(-c2ccccc2)cs1,inactive,–
CCc1cc2c(cc3c(=O)n(CC(=O)NCCCN4CC(C)CC(C)C4)ncn32)s1 (stereo not drawn),"inconclusive: 18.4 µM [inhibitor, single point]",–
COc1cccc(NC(=O)CSc2nc(=O)n(Cc3ccco3)c3c2CCC3)c1,"inconclusive: 32.6 µM [inhibitor, single point]",–
O=C(Nc1cccc2cccnc12)c1ccc2sc([C@@H]3O[C@H](CO)[C@H](O)[C@H](O)[C@H]3O)nc2c1,"inconclusive: 18.4 µM [inhibitor, single point]",–
Cc1ccc(-c2cc(C(=O)N/N=C/c3c(C)nn(-c4ccccc4)c3C)n[nH]2)s1,active: 0.82 µM,–
CC(C)C(=O)Nc1ccc2nn(-c3ccc(F)cc3)nc2c1,"inconclusive: 18.4 µM [inhibitor, partial curve]",–
CCCOC(=O)C1=C(C)NC(=O)NC1c1ccc(Br)s1 (stereo not drawn),"inconclusive: 29.1 µM [inhibitor, single point]",–
COc1cc(C2C(C(=O)OCC(C)C)=C(C)N=C3SCCC(=O)N32)ccc1OCc1ccccc1 (stereo not drawn),–,inconclusive: -32.7% [inhibitor]
Cn1ccc2c(/C=C/c3ccc(F)cc3)cc3c(c21)C1CCC3O1 (stereo not drawn),active: 11.6 µM,–
